From PubChem BioAssay AID686979 (National Center for Advancing Translational Sciences (NCATS), 2013)
The whole screen tested about 420,000 compounds, of which about 50,000 (12%) were called active. The shares of active, inactive and inconclusive entries below differ from those in the screen. Calls come from the whole dose curve; as a rule, active = well fitted inhibition curve with a large enough effect; inconclusive = small, poorly fitted or top-dose-only effect; inactive = flat fitted curve, though single readings scatter. No potency is given beside an inconclusive call; the fits are too rough.

Experiment: qHTS for Inhibitors of human tyrosyl-DNA phosphodiesterase 1 (TDP1): qHTS in cells in presence of CPT; note: nearly all actives have a fitted effect of over 55% in size
Settings: chicken DT40 Tdp1-/-;hTDP1 cells + 20 nM CPT, ATP luminescence, 48 h; series mostly up to 46.2 µM
How it was run: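 Cell growth measured by CellTiter-Glo luminescence after a minimum 48 h, 37 C compound exposure with 20 nM CPT in Tdp1-knockout DT40 cells stably expressing hTDP1, seeded 400/well; qHTS titration format.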
Potency is the fitted concentration of half-maximal effect; tags give direction and shape of the fitted curve.

SMILES	Potency
CC1CC(C)CN(S(=O)(=O)c2ccc(NN)nc2)C1 (stereo not given)	inconclusive [inhibitor, single point]
COc1ccc(N2CCN(C(=O)c3ccc(C)cc3)CC2)c([N+](=O)[O-])c1	inconclusive [inhibitor, single point]
CCc1nnc(NC(=O)CSc2nccn2-c2ccc(OC)cc2)s1	inconclusive [inhibitor, full curve, poor fit]
COc1cc(CCCN2C(=S)NC[C@@H]2c2ccccc2)cc(OC)c1OC	active: 25.9 µM
O=C(COC(=O)c1ccc(Cl)c([N+](=O)[O-])c1)Nc1ccccc1OC(F)F	inconclusive [inhibitor, single point]
COc1ccccc1NC(=O)c1ccc(-c2ccccc2F)o1	inconclusive [inhibitor, single point]
CC(=O)N1CCc2c(sc(NC(=O)CS(=O)(=O)c3ccc(F)cc3)c2C#N)C1	inconclusive [inhibitor, single point]
COCCNc1ccc([N+](=O)[O-])cc1C(=O)Nc1cccc(C)n1	active: 13 µM
CC(NC(=O)C1CCC(=O)N1Cc1ccc(F)cc1)c1ccc2c(c1)OCCO2 (stereo not given)	inactive
C=CCn1c(SCc2ccc(Cl)cc2)nc2cc(C(=O)N3CCC(C(N)=O)CC3)ccc2c1=O	inconclusive [inhibitor, single point]
N/C(=N/O)c1ccccc1N1CCC(Cc2ccccc2)CC1	inconclusive [inhibitor, single point]
Cc1noc(C)c1-c1ccc(C(=O)NCc2cccnc2)c2occc12	active: 13 µM
CCOC(=O)c1sc2nc(SCC#N)n(CC3CCCO3)c(=O)c2c1C (stereo not given)	inconclusive [inhibitor, single point]
COC(=O)C1=C(C(=O)OC)[C@@H]2N(Cc3ccccc3)c3ccccc3[C@@]23C[C@@H](C(=O)OC)N(C(=O)C2CCC2)C3=N1	inactive
O=c1[nH]c2c(c3c1CCCC3)CCCC2	active: 20.6 µM
COc1cc(CNCc2ccccc2)c(Br)cc1OC1CCCC1	inconclusive [inhibitor, single point]
Cc1nc(C)c(-c2ccc(SCC(=O)Nc3ccc(Br)cc3)nn2)s1	active: 20.6 µM
O=C(Nc1ccc2oc(-c3ccccc3)nc2c1)c1cccs1	inconclusive [inhibitor, single point]
CC(=O)c1cccc(-n2c(=O)c3c4c(sc3n(CC(=O)c3ccccc3)c2=O)CN(C(C)=O)CC4)c1	inactive
Cc1ccc2c(NCc3ccco3)nc(NC(C)C)nc2c1	inconclusive [inhibitor, single point]
CCCCCCC1CC(CC(=O)Nc2ccc([N+](=O)[O-])cc2)C(=O)O1 (stereo not given)	active: 18.4 µM
Cc1c(Br)c([N+](=O)[O-])nn1CC(=O)NCc1ccccc1	inconclusive [inhibitor, single point]
COc1ccc(C)cc1NC(=O)CSc1ccc(-c2ccco2)nn1	inconclusive [inhibitor, single point]

SMILES	Potency
CC1CN(C(=O)CCc2ccccc2)C(C)CN1C(=O)CCc1ccccc1 (stereo not given)	inconclusive [inhibitor, single point]
CCSC1=NC2(CCCCC2)Nc2sc3c(c21)CCCC3	active: 23.1 µM
O=C(NC(=S)Nc1ccccc1Cl)c1cnn2c(C(F)(F)F)cc(C(F)(F)F)nc12	inconclusive [inhibitor, single point]
CC(C)(C)n1nnnc1C(c1ccc(C(F)(F)F)cc1)N(Cc1ccccc1)Cc1ccco1 (stereo not given)	active: 20.6 µM
Cc1ccc(C)c(CN2C(=O)c3ccccc3S(=O)(=O)c3ccc(C(=O)N(C)C4CCCCC4)cc32)c1	inconclusive [inhibitor, single point]
Cc1ccc2[nH]c3c(c2c1)CN(C(=O)CN1CCN(Cc2ccc4c(c2)OCO4)CC1)CC3	inconclusive [inhibitor, single point]
CC(Sc1nc2ccccc2c(=O)n1C)C(=O)Nc1ccc2c(c1)OCCO2 (stereo not given)	active: 8.2 µM
O=S(=O)(c1ccc(SCCOc2ccc(Br)cc2)nc1)N1CCCC1	inconclusive [inhibitor, single point]
O=C(NCc1ccccn1)C1CN(S(=O)(=O)c2ccccc2)CCN1S(=O)(=O)c1ccccc1 (stereo not given)	inactive
Cc1nn(-c2ccccc2)c(OC(=O)C(C)C)c1Sc1ccc(Cl)cc1	inconclusive [inhibitor, single point]
Cc1ccc(CNC(=O)CCCCCn2c(=O)[nH]c3ccccc3c2=O)cc1	active: 0.651 µM
Cc1ccc(/C=C/c2onc(C)c2S(=O)(=O)N2CCC(C(=O)Nc3ccc(C)c(N(C)C)c3)CC2)cc1	active: 8.2 µM
CCCNC(=O)c1c(N)n(-c2ccc3c(c2)OCO3)c2nc3ccccc3nc12	active: 8.2 µM
O=C(CCS(=O)(=O)c1ccc(F)cc1)N1CCN(c2ccccc2)CC1	inconclusive [inhibitor, single point]
CCS(=O)(=O)c1nnnn1-c1ccccc1S(C)(=O)=O	inconclusive [inhibitor, single point]
CCOC(=O)C1=C(COC(=O)CNS(=O)(=O)c2ccc(C)cc2)NC(=O)NC1C (stereo not given)	inactive
Nc1n[nH]c(N)c1N=Nc1ccc(F)cc1	inactive
COc1cc(NC(=O)Cn2cnc3c(OCc4ccccc4)ncnc32)cc(OC)c1OC	inconclusive [inhibitor, single point]
COc1ccccc1CNC(=S)NC1CCCCC1	inconclusive [inhibitor, single point]
Cc1cccc(N2CCN(C(=O)c3ccc(CS(=O)Cc4cccc(Cl)c4)o3)CC2)c1C (stereo not given)	inconclusive [inhibitor, single point]
Oc1c(CN2CCCCC2)cc(Br)c2cccnc12	active: 5.17 µM
COc1ccc(CCNC(=O)C(=O)NCC2OCCN2S(=O)(=O)c2ccc(OC)c(C)c2)cc1 (stereo not given)	active: 18.4 µM
